In all, about 210,000 compounds went through this assay and about 5,900 (2.8%) were called active. Inconclusive results, whose numbers are uncertain, are shown with a selection of clear calls. Calls follow the shape of the dose curve; as a rule, active = well fitted activation curve with a large enough effect; inconclusive = small, poorly fitted or top-dose-only effect; inactive = no such curve, though single readings can be large or run the other way. Where the call is inconclusive, the potency comes from a doubtful curve fit.
assay: qHTS Assay for Enhancers of SMN2 Splice Variant Expression; details: HEK293 SMN2-luciferase splicing reporter, luminescence, 30-36 h; activity change, positive = activation: at 46.1 µM (top of the series); also: nearly all actives have a fitted effect of over 55% in size; as to activity change, positive = activation: % of control where 0% means no effect
Outline: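 qHTS luciferase splicing reporter: luminescence rises when SMN2 exon 7 is included in transfected HEK293 cells. Compound exposure lasted 30-36 h at 37C, with 4.5 mM final sodium butyrate as control, followed by a ONE-Glo read.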
Potency is read from the fitted curve at half-maximal effect; tags tell the direction and shape of the fitted curve.

| SMILES | Potency | activity change, positive = activation |
| --- | --- | --- |
| CC(=O)c1sc(NC(=O)c2ccc(F)cc2)nc1-c1ccccc1 | inconclusive: 15.8 µM [activator, single point] |  |
| COc1ccccc1NC(=O)c1ccc2oc(=O)c(S(=O)(=O)c3ccccc3)cc2c1 | inactive |  |
| COc1ccccc1N1CCN(C(=O)CN2C(=O)COc3ccc(S(=O)(=O)N4CCCC4)cc32)CC1 | inconclusive: 5.62 µM [activator, full curve, poor fit] |  |
| CCOC(=O)c1cccc(NC(=O)CSc2nc3cccnc3n2C)c1 | inactive |  |
| Cc1ccc(S(=O)(=O)N/N=C/c2ccccc2O)cc1[N+](=O)[O-] | inactive |  |
| CCOc1ccc(-c2cc3c(=O)n(Cc4nc(-c5ccc(OC(C)C)cc5)oc4C)ccn3n2)cc1Cl | inactive |  |
| COc1ccc(NC(=O)Nc2nc3c(s2)CCCC3)cc1 | active: 12.6 µM |  |
| Cc1ccc(C(=O)Nc2ccc(S(=O)(=O)O)c3cc(S(=O)(=O)O)cc(S(=O)(=O)O)c23)cc1NC(=O)c1cccc(NC(=O)Nc2cccc(C(=O)Nc3cc(C(=O)Nc4ccc(S(=O)(=O)O)c5cc(S(=O)(=O)O)cc(S(=O)(=O)O)c45)ccc3C)c2)c1 | inconclusive: 11.2 µM [activator, full curve] |  |
| Nc1ccc(-c2nc3ccc(N)cc3o2)cc1 | inconclusive: 17.8 µM [activator, partial curve, poor fit] |  |
| COC(=O)CC/C(O)=C1\C(=O)CC(C)(C)CC1=Nc1ccccc1OC | inconclusive: 5.01 µM [activator, single point] |  |
| COc1ccc(NC(=O)c2ccccn2)cc1OC | inconclusive: 35.5 µM [activator, single point] |  |
| O=C(c1ccncc1)N1CCC[C@@]2(CCN(Cc3cc(C(F)(F)F)cc(C(F)(F)F)c3)C2)C1 | inactive |  |
| O=C(Nc1cccnc1)c1c(O)c2cccc3c2n(c1=O)CC3 | inconclusive: 14.1 µM [activator, partial curve, poor fit] |  |
| CCOC(=O)c1c(C)c(-c2ccccc2)n(CC(=O)NCc2cccc(OC)c2)c1C | inactive |  |
| Clc1cccc(NCc2nnc3n2CCCCC3)c1 | inconclusive: 14.1 µM [activator, single point] |  |
| O=C(NCCCN=C1NS(=O)(=O)c2ccccc21)c1ccc(S(=O)(=O)N2CCCCC2)cc1 | inconclusive: 0.0447 µM [activator, full curve] |  |
| O=C1CC(c2cc3c(cc2Br)OCO3)C2=C(CCCC2=O)N1 (centres undefined) | inconclusive: 5.01 µM [activator, single point] |  |
| Clc1ccc(CN2CCCCCCC2)cc1Cl | inconclusive: 5.62 µM [activator, single point] |  |
| COc1ccccc1N1CCN(C(=O)c2ccc(C(C)(C)C)cc2)CC1 | inconclusive: 3.98 µM [activator, partial curve, poor fit] |  |
| COc1cc(/C=C/C2=CC(C)(C)NC(=S)N2)cc(OC)c1OC | active: 11.2 µM |  |
| COc1ccc(/C=N/N=C(\N)c2nonc2N)cc1 | active: 4.47 µM |  |
| COc1ccc(/C=N/NC(=O)c2cccc([N+](=O)[O-])c2)cc1O | inactive |  |

| SMILES | Potency | activity change, positive = activation |
| --- | --- | --- |
| COc1ccc(-c2cnn3c4c(c(C)nc23)CCN4C(C)C)cc1OC | inconclusive: 10 µM [activator, partial curve] |  |
| CCC1CCCCN1C(=O)CSc1nnc(-c2cccc(Cl)c2)o1 (centres undefined) | inconclusive: 25.1 µM [activator, single point] |  |
| O=C(NCCn1cc(SCc2ccccc2Cl)c2ccccc21)c1cccs1 | inactive |  |
| CCCCCCOC(=O)NCC(O)c1ccccc1 (centres undefined) | inconclusive: 14.1 µM [activator, single point] |  |
| N#Cc1nc(-c2ccc(Cl)cc2)oc1NCc1ccco1 | inconclusive: 2.82 µM [activator, single point] |  |
| S=C(Nc1ccc(Oc2ccccc2)cc1)NC1CCCC1 | inconclusive: 3.55 µM [activator, partial curve, poor fit] |  |
| CCc1cc2c(=O)c(-c3ccc4c(c3)OCCO4)coc2cc1OC(=O)c1ccco1 | inconclusive: 31.6 µM [activator, single point] |  |
| COc1cc(/C(C)=N/Nc2ccc(C(=O)O)cc2)cc(OC)c1OC | active: 15.8 µM |  |
| COC(=O)CN1C(=S)N(Cc2ccccc2)C(=O)C1CC(=O)Nc1ccc(Br)cc1 (centres undefined) | inconclusive: 1.58 µM [activator, partial curve, poor fit] |  |
| Cn1cccc1-c1nc2ccc(NC(=O)c3cccs3)cc2[nH]1 | inactive |  |
| CC1CN(c2ccccc2)C(=O)CS1 (centres undefined) | inconclusive: 1.26 µM [activator, full curve] |  |
| O=C1C2CCCN2C(c2ccc(F)cc2)N1c1ccc(Cl)cc1 (centres undefined) | inconclusive: 35.5 µM [activator, single point] |  |
| CCC(=O)c1ccc(OCC(O)CN2CCN(c3ccc(F)cc3)CC2)cc1 (centres undefined) | inconclusive: 35.5 µM [activator, single point] |  |
| Clc1cccc(-c2nc(-c3ccccn3)no2)c1 | active: 0.708 µM |  |
| CCCN1Cc2cccc(C(=O)NCc3cccs3)c2C1=O | inconclusive: 1.58 µM [activator, full curve] |  |
| COc1ccc(-c2cc(C(F)(F)F)nc(SCCC(=O)Nc3ccccc3F)n2)cc1 | inactive |  |
| O=C(Nc1ccon1)c1cccc(Cl)c1 | inconclusive: 0.0032 µM [activator, full curve, poor fit] |  |
| Cc1ccc(S(=O)(=O)N2CCC(C(=O)N/N=C/c3cccnc3)CC2)cc1 | inconclusive: 7.08 µM [activator, partial curve] |  |
| COc1ccc(C(=O)C[n+]2ccccc2/C=N/O)cc1 |  | inconclusive: 64% [activator] |
| O=C(COc1ccccc1Cl)Nc1ccc(Cl)cn1 | active: 11.2 µM |  |
| COc1cc2c(cc1OC)C(c1cccs1)N(C(=S)NC(C)C)CC2 (centres undefined) | inconclusive: 7.94 µM [activator, partial curve, poor fit] |  |
| Cc1cccnc1NC(=S)NCCc1ccccc1 | inconclusive: 17.8 µM [activator, partial curve, poor fit] |  |
